Biological target: the molecule itself
Test: SEC; 5 μM SAMHD1 preincubated with 3 mM dGTP; analytical Superdex 200 (10 × 300 mm), 0.5 mL/min; 20 mM Tris-HCl pH 7.8, 50 mM NaCl, 10 μM dGTP, 5 mM MgCl2, 5% glycerol; dGTP-induced tetramer

Protein | stoichiometry N
6xHis-SAMHD1 K354Q (natural protein, SAMHD1, full-length, from pET14b-6xHis-SAMHD1 by site-directed mutagenesis; acetyl mimic; Tetramer only stated after preincubation with dGTP; source: E. coli BL21 Rosetta, purified (His-Trap, Superdex 200 SEC); not shown: His6, N-terminal, kept) not shown | 4
6xHis-SAMHD1 K354R (natural protein, SAMHD1, full-length, from pET14b-6xHis-SAMHD1 by site-directed mutagenesis; Tetramer only stated after preincubation with dGTP; source: E. coli BL21 Rosetta, purified (His-Trap, Superdex 200 SEC); not shown: His6, N-terminal, kept) not shown | 4

Reference: PMC9640623, “SAMHD1 deacetylation by SIRT1 promotes DNA end resection by facilitating DNA binding at double-strand breaks” (Nature Communications, 2021)
